{"source": "the supplement of paper PMC8728848", "assay_in_all_cases": "glycan array binding signal (z-score within array); higher = stronger binding", "details_in_all_cases": "glycan notation: IUPAC condensed, linker removed", "key": {"[1]": {"target": "Neu5Ac(a2-6)Gal(b1-4)GlcNAc(b1-2)Man(a1-3)[Man(a1-6)]Man(b1-4)GlcNAc(b1-4)GlcNAc", "how_it_was_run": "(§1)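 The binding signal is a Z-score computed within each array and averaged over linkers. Arrays of the same protein sequence at different concentrations or buffers were also averaged together. Data originate from 3228 arrays in the Consortium for Functional Glycomics database, kept only where the protein sequence was available.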"}, "[2]": {"target": "Neu5Ac(a2-6)Gal(b1-4)GlcNAc(b1-2)Man(a1-3)[Neu5Ac(a2-3)Gal(b1-4)GlcNAc(b1-2)Man(a1-6)]Man(b1-4)GlcNAc(b1-4)GlcNAc", "how_it_was_run": "as §1"}, "[3]": {"target": "Neu5Ac(a2-6)Gal(b1-4)GlcNAc(b1-2)Man(a1-3)[Neu5Ac(a2-6)Gal(b1-4)GlcNAc(b1-2)Man(a1-6)]Man(b1-4)GlcNAc(b1-4)GlcNAc", "how_it_was_run": "as §1"}, "[4]": {"target": "Neu5Ac(a2-6)Gal(b1-4)GlcNAc(b1-2)Man(a1-3)[Neu5Ac(a2-6)Gal(b1-4)GlcNAc(b1-2)Man(a1-6)]Man(b1-4)GlcNAc(b1-4)[Fuc(a1-6)]GlcNAc", "how_it_was_run": "as §1"}, "[5]": {"target": "Neu5Ac(a2-6)Gal(b1-4)GlcNAc(b1-2)Man(a1-6)Man(b1-4)GlcNAc(b1-4)GlcNAc", "how_it_was_run": "as §1"}, "[6]": {"target": "Neu5Ac(a2-6)Gal(b1-4)GlcNAc(b1-2)Man(a1-6)[Gal(b1-4)GlcNAc(b1-2)Man(a1-3)]Man(b1-4)GlcNAc(b1-4)GlcNAc", "how_it_was_run": "as §1"}, "[7]": {"target": "Neu5Ac(a2-6)Gal(b1-4)GlcNAc(b1-2)Man(a1-6)[GlcNAc(b1-2)Man(a1-3)]Man(b1-4)GlcNAc(b1-4)GlcNAc", "how_it_was_run": "as §1"}, "[8]": {"target": "Neu5Ac(a2-6)Gal(b1-4)GlcNAc(b1-2)Man(a1-6)[Man(a1-3)]Man(b1-4)GlcNAc(b1-4)GlcNAc", "how_it_was_run": "as §1"}, "[9]": {"target": "Neu5Ac(a2-6)Gal(b1-4)GlcNAc(b1-2)[Neu5Ac(a2-6)Gal(b1-4)GlcNAc(b1-4)]Man(a1-3)[GlcNAc(b1-4)][Neu5Ac(a2-6)Gal(b1-4)GlcNAc(b1-2)[Neu5Ac(a2-6)Gal(b1-4)GlcNAc(b1-6)]Man(a1-6)]Man(b1-4)GlcNAc(b1-4)GlcNAc", "how_it_was_run": "as §1"}, "[10]": {"target": "Neu5Ac(a2-6)Gal(b1-4)GlcNAc(b1-2)[Neu5Ac(a2-6)Gal(b1-4)GlcNAc(b1-4)]Man(a1-3)[GlcNAc(b1-4)][Neu5Ac(a2-6)Gal(b1-4)GlcNAc(b1-4)Man(a1-6)]Man(b1-4)GlcNAc(b1-4)GlcNAc", "how_it_was_run": "as §1"}, "[11]": {"target": "Neu5Ac(a2-6)Gal(b1-4)GlcNAc(b1-2)[Neu5Ac(a2-6)Gal(b1-4)GlcNAc(b1-6)]Man(a1-6)[Neu5Ac(a2-6)Gal(b1-4)GlcNAc(b1-2)Man(a1-3)][GlcNAc(b1-4)]Man(b1-4)GlcNAc(b1-4)GlcNAc", "how_it_was_run": "as §1"}, "[12]": {"target": "Neu5Ac(a2-6)Gal(b1-4)GlcNAc(b1-3)Gal(b1-3)GlcNAc", "how_it_was_run": "as §1"}, "[13]": {"target": "Neu5Ac(a2-6)Gal(b1-4)GlcNAc(b1-3)Gal(b1-4)GlcNAc", "how_it_was_run": "as §1"}, "[14]": {"target": "Neu5Ac(a2-6)Gal(b1-4)GlcNAc(b1-3)Gal(b1-4)GlcNAc(b1-2)Man(a1-3)[Neu5Ac(a2-6)Gal(b1-4)GlcNAc(b1-3)Gal(b1-4)GlcNAc(b1-2)Man(a1-6)]GalNAc", "how_it_was_run": "as §1"}, "[15]": {"target": "Neu5Ac(a2-6)Gal(b1-4)GlcNAc(b1-3)Gal(b1-4)GlcNAc(b1-3)Gal(b1-4)GlcNAc", "how_it_was_run": "as §1"}, "[16]": {"target": "Neu5Ac(a2-6)Gal(b1-4)GlcNAc(b1-3)Gal(b1-4)GlcNAc(b1-3)Gal(b1-4)GlcNAc(b1-2)Man(a1-3)[Neu5Ac(a2-6)Gal(b1-4)GlcNAc(b1-3)Gal(b1-4)GlcNAc(b1-3)Gal(b1-4)GlcNAc(b1-2)Man(a1-6)]GalNAc", "how_it_was_run": "as §1"}, "[17]": {"target": "Neu5Ac(a2-6)Gal(b1-4)GlcNAc(b1-3)Gal(b1-4)GlcNAc(b1-3)GalNAc", "how_it_was_run": "as §1"}, "[18]": {"target": "Neu5Ac(a2-6)Gal(b1-4)GlcNAc(b1-3)Gal(b1-4)GlcNAc(b1-3)[Neu5Ac(a2-6)Gal(b1-4)GlcNAc(b1-3)Gal(b1-4)GlcNAc(b1-6)]GalNAc", "how_it_was_run": "as §1"}, "[19]": {"target": "Neu5Ac(a2-6)Gal(b1-4)GlcNAc(b1-3)Gal(b1-4)GlcNAc(b1-6)[Gal(b1-3)]GalNAc", "how_it_was_run": "as §1"}, "[20]": {"target": "Neu5Ac(a2-6)Gal(b1-4)GlcNAc(b1-3)Gal(b1-4)[Fuc(a1-3)]GlcNAc(b1-3)Gal(b1-4)[Fuc(a1-3)]GlcNAc", "how_it_was_run": "as §1"}, "[21]": {"target": "Neu5Ac(a2-6)Gal(b1-4)GlcNAc(b1-3)GalNAc", "how_it_was_run": "as §1"}, "[22]": {"target": "Neu5Ac(a2-6)Gal(b1-4)GlcNAc(b1-3)[Neu5Ac(a2-6)Gal(b1-4)GlcNAc(b1-6)]GalNAc", "how_it_was_run": "as §1"}, "[23]": {"target": "Neu5Ac(a2-6)Gal(b1-4)GlcNAc(b1-6)GalNAc", "how_it_was_run": "as §1"}, "[24]": {"target": "Neu5Ac(a2-6)Gal(b1-4)GlcNAc(b1-6)[Gal(b1-3)GlcNAc(b1-3)]Gal(b1-4)Glc", "how_it_was_run": "as §1"}, "[25]": {"target": "Neu5Ac(a2-6)Gal(b1-4)GlcNAc(b1-6)[Gal(b1-3)]GalNAc", "how_it_was_run": "as §1"}, "[26]": {"target": "Neu5Ac(a2-6)Gal(b1-4)GlcNAc6S", "how_it_was_run": "as §1"}, "Neu5Ac(a2-6)GalNAc": {"target": "Neu5Ac(a2-6)GalNAc", "how_it_was_run": "as §1"}, "[27]": {"target": "Neu5Ac(a2-6)GalNAc(b1-4)GlcNAc", "how_it_was_run": "as §1"}, "[28]": {"target": "Neu5Ac(a2-6)GalNAc(b1-4)GlcNAc6S", "how_it_was_run": "as §1"}, "[29]": {"target": "Neu5Ac(a2-6)GlcNAc(b1-4)GlcNAc", "how_it_was_run": "as §1"}, "[30]": {"target": "Neu5Ac(a2-6)GlcNAc(b1-4)GlcNAc(b1-4)GlcNAc", "how_it_was_run": "as §1"}}, "note": "Some of the results follow."}
{"binder": "LgFlo1 (Saccharomyces pastorianus), B3IUA8 (protein) SGSTQACLPVGSRKNGMNVNFYKYSLQDSTTYSDPQYMAYKYSDTKKLGSVSGQTHLSIYYGPNTAFWNTASWSSDLFGFYTTPTNVTVEMTGYFLPPQTGSYTFKFATVDDSAILSVGGSIAFECCAQEQPPITSTDFTINGIKPWDAATPTDIKGSTYMYAGYYYPIKIVYSNAKALARLPVSVVLPDGTEVNDDFEGYVYSFDDDLSQSNCTIPDPSKHTTS", "values": [{"measurement": "glycan array binding signal (z-score)", "setting": "[1]", "value": -0.306}, {"measurement": "glycan array binding signal (z-score)", "setting": "[2]", "value": -0.257}, {"measurement": "glycan array binding signal (z-score)", "setting": "[3]", "value": -0.299}, {"measurement": "glycan array binding signal (z-score)", "setting": "[4]", "value": -0.085}, {"measurement": "glycan array binding signal (z-score)", "setting": "[5]", "value": -0.119}, {"measurement": "glycan array binding signal (z-score)", "setting": "[6]", "value": -0.38}, {"measurement": "glycan array binding signal (z-score)", "setting": "[7]", "value": -0.335}, {"measurement": "glycan array binding signal (z-score)", "setting": "[8]", "value": -0.037}, {"measurement": "glycan array binding signal (z-score)", "setting": "[9]", "value": -0.066}, {"measurement": "glycan array binding signal (z-score)", "setting": "[10]", "value": 0.469}, {"measurement": "glycan array binding signal (z-score)", "setting": "[11]", "value": -0.153}, {"measurement": "glycan array binding signal (z-score)", "setting": "[12]", "value": 0.199}, {"measurement": "glycan array binding signal (z-score)", "setting": "[13]", "value": -0.514}, {"measurement": "glycan array binding signal (z-score)", "setting": "[14]", "value": -0.499}, {"measurement": "glycan array binding signal (z-score)", "setting": "[15]", "value": -0.317}, {"measurement": "glycan array binding signal (z-score)", "setting": "[16]", "value": -0.071}, {"measurement": "glycan array binding signal (z-score)", "setting": "[17]", "value": -0.418}, {"measurement": "glycan array binding signal (z-score)", "setting": "[18]", "value": -0.127}, {"measurement": "glycan array binding signal (z-score)", "setting": "[19]", "value": 0.026}, {"measurement": "glycan array binding signal (z-score)", "setting": "[20]", "value": -0.167}, {"measurement": "glycan array binding signal (z-score)", "setting": "[21]", "value": -0.102}, {"measurement": "glycan array binding signal (z-score)", "setting": "[22]", "value": -0.237}, {"measurement": "glycan array binding signal (z-score)", "setting": "[23]", "value": -0.267}, {"measurement": "glycan array binding signal (z-score)", "setting": "[24]", "value": -0.291}, {"measurement": "glycan array binding signal (z-score)", "setting": "[25]", "value": -0.064}, {"measurement": "glycan array binding signal (z-score)", "setting": "[26]", "value": -0.226}, {"measurement": "glycan array binding signal (z-score)", "setting": "Neu5Ac(a2-6)GalNAc", "value": -0.312}, {"measurement": "glycan array binding signal (z-score)", "setting": "[27]", "value": -0.367}, {"measurement": "glycan array binding signal (z-score)", "setting": "[28]", "value": -0.226}, {"measurement": "glycan array binding signal (z-score)", "setting": "[29]", "value": -0.465}, {"measurement": "glycan array binding signal (z-score)", "setting": "[30]", "value": 0.655}]}
